# Measured values: the supplement of paper PMC7826260
# The list shows a part of the results. One pool of 16,384 single-stranded DNAs met each Rep nickase domain in vitro at 3 µM enzyme and 37 °C for 1 h; the strands have 90 letters, of which the middle is given. Uncut reads are compared with the no-enzyme pool on a log2 scale; strong cutting gives strongly negative numbers. There is no active / inactive call. Counts are relative to all reads; values above 0 arise when much of the pool is cut.
# How the values were obtained:
# Assay in all cases: uncleaved DNA left, log2 of reads against the no-enzyme library (log2 ratio); higher = less cleavage (more negative = more Rep cleavage of the k-mer); sequences stand for … in CTCGTCCG…ACCGGAGA
# [1] = tested on: T1, Rep nickase domain of Muscovy duck circovirus
# T1 sequence (Rep 1-111, printed without the tag): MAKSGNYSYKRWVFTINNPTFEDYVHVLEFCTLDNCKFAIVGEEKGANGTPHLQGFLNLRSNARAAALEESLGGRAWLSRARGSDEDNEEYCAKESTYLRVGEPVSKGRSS
# Experimental: (§1)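 A pool of 90-nt single-stranded DNAs with seven random bases just before the constant AC of the nick site (name = the seven bases) was cut by 3 µM recombinant His6-SUMO-tagged Rep nickase domain (300 nM DNA, 50 mM HEPES pH 8.0, 50 mM NaCl, 1 mM MnCl2, 1 h, 37 °C, three replicates). Uncut DNA was amplified and sequenced.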
# [2] = tested on: T2, Rep nickase domain of banana bunchy top virus
# T2 sequence (Rep 1-94, printed without the tag): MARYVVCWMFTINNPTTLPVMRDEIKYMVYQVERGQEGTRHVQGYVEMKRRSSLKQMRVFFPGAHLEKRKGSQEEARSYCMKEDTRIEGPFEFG
# Experimental: as §1
# [3] = tested on: T3, Rep nickase domain of cabbage leaf curl virus
# T3 sequence (Rep 1-116, printed without the tag): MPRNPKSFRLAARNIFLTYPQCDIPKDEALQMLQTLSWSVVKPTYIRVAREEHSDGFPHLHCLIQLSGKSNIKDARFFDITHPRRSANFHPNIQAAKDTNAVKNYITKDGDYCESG
# Experimental: as §1
# [4] = tested on: T4, Rep nickase domain of chickpea chlorotic dwarf virus
# T4 sequence (Rep 1-124, printed without the tag): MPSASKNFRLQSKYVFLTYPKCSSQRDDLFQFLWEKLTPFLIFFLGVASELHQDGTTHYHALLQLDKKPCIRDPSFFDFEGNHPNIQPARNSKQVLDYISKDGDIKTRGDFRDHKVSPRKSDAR
# Experimental: as §1
# [5] = tested on: T5, Rep nickase domain of faba bean necrotic yellows virus
# T5 sequence (Rep 1-98, printed without the tag): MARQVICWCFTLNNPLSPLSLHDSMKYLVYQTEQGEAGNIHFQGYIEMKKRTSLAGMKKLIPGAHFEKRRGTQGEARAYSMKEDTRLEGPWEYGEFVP
# Experimental: as §1
# [6] = tested on: T6, Rep nickase domain of maize striate mosaic virus
# T6 sequence (Rep 1-117, printed without the tag): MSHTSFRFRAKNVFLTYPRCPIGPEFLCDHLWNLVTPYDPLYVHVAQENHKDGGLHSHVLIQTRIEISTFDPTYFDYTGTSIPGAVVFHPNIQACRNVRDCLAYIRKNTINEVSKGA
# Experimental: as §1
# [7] = tested on: T7, Rep nickase domain of porcine circovirus 2
# T7 sequence (Rep 2-116, printed without the tag): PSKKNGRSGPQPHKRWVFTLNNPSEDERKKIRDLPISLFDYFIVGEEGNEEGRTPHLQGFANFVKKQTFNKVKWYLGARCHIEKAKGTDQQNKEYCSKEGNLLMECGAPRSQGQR
# Experimental: as §1
# [8] = tested on: T8, Rep nickase domain of tomato yellow leaf curl virus
# T8 sequence (Rep 1-136, printed without the tag): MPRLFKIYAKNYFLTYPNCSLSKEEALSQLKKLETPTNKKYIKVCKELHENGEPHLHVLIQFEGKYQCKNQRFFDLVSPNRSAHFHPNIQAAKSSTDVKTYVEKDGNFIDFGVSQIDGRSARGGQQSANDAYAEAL
# Experimental: as §1
# [9] = tested on: T9, Rep nickase domain of wheat dwarf virus
# T9 sequence (Rep 1-137, printed without the tag): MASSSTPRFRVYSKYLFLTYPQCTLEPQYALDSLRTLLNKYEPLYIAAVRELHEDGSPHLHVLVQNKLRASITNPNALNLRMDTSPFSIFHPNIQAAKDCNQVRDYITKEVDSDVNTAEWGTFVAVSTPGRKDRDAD
# Experimental: as §1
Sequence,uncleaved DNA left (log2) [1],uncleaved DNA left (log2) [2],uncleaved DNA left (log2) [3],uncleaved DNA left (log2) [4],uncleaved DNA left (log2) [5],uncleaved DNA left (log2) [6],uncleaved DNA left (log2) [7],uncleaved DNA left (log2) [8],uncleaved DNA left (log2) [9]
CGCACAA,0.0107,0.198,0.22,0.304,0.0317,-0.0712,0.0262,0.0545,0.131
TCAAACG,-0.0174,-0.00418,-0.814,-0.656,-0.0203,-1.27,0.18,-0.00558,-0.0843
ACTCTGA,-0.0837,-0.0174,-0.1,-0.0785,0.0321,-0.429,0.0522,0.0396,0.00717
GCTAACG,-0.0233,-0.0647,-0.855,-0.413,-0.0978,-0.965,0.132,-0.0445,-0.0786
ATTAGGT,-0.00184,-0.0558,0.361,1.13,-0.0581,1.41,-0.11,-0.0947,0.0296
CTGCGGA,0.163,0.0824,-0.407,-0.612,0.0501,-0.965,0.079,0.00101,-0.0145
TTCGCAG,-0.0741,-0.0309,-0.768,-0.792,-0.0847,-1.1,0.0944,-0.108,-0.0791
ACTGACA,-0.0799,0.0401,-0.0168,0.37,-0.00476,0.502,-0.0577,0.0321,0.152
ATTGTAG,0.00751,0.0698,-0.764,-0.0713,-0.0557,-1.07,0.0638,0.0635,-0.147
TGGACTT,0.0262,-0.0505,0.83,1.89,-0.0522,2.16,0.13,-0.0589,0.116
CCCCATG,0.0889,-0.168,-0.744,-0.631,-0.0515,-1.16,-0.0871,-0.129,-0.295
CTTACCC,-0.258,0.0473,-0.224,-2.52,0.0251,-0.554,-1.17,-0.105,0.0547
CCGTTTG,-0.000229,-0.105,-0.493,-0.609,-0.247,-0.827,0.00947,-0.0562,-0.189
CTTCCCT,-0.226,-0.236,-0.207,-2.13,-0.286,-0.628,-2.33,-0.108,-0.232
AGCTACT,-0.255,0.108,0.0558,0.265,0.104,1.63,-2.63,0.0169,0.115
CACTACC,-0.0911,-0.133,-0.328,-2.35,-0.00945,-0.502,-1.44,-0.00176,-0.0426
TTTTTGG,0.113,0.026,0.199,0.268,0.0434,0.0316,0.108,-0.0303,-0.0285
TTTGTGT,0.0146,0.0142,-0.663,-0.887,0.0896,-1.15,0.0885,0.0514,-0.123
CTATCCG,-0.00655,-0.0807,-0.944,0.0387,-0.0187,-1.03,0.0484,-0.0751,-0.159
GAGTTTA,-0.0331,0.0855,0.202,-0.58,-0.0531,1.02,-2.23,0.0677,0.232

Sequence,uncleaved DNA left (log2) [1],uncleaved DNA left (log2) [2],uncleaved DNA left (log2) [3],uncleaved DNA left (log2) [4],uncleaved DNA left (log2) [5],uncleaved DNA left (log2) [6],uncleaved DNA left (log2) [7],uncleaved DNA left (log2) [8],uncleaved DNA left (log2) [9]
ACGAACG,-0.135,-0.0123,-0.768,-0.188,-0.0323,-0.917,0.0815,0.00439,-0.0356
GGAAAAG,0.0968,0.151,0.326,0.831,0.0563,0.0424,0.272,0.116,0.229
AATTGGA,-0.146,-0.0579,-0.182,-0.378,0.0753,-0.982,-0.606,0.0189,0.0492
GTTTTTT,-0.471,-0.036,0.239,0.583,-0.139,1.65,-0.634,-0.0639,-0.0704
AAGTGAA,0.00908,0.0338,0.16,0.826,0.035,1.24,-2.64,-0.0918,0.0454
GTTTGCA,0.0418,0.0325,0.0516,0.348,-0.0707,0.307,0.12,0.0586,-0.0631
CCACTTG,-0.0799,-0.16,-0.489,-1.1,0.0411,-1.07,0.0771,-0.00543,-0.192
GGCAGCA,0.0523,0.0647,0.557,1.25,0.0389,1.37,0.114,0.0722,0.133
CGTTAGC,0.00783,0.00892,0.152,0.608,0.0581,0.0889,0.0458,-0.0993,0.0694
TGTGTAG,0.00596,-0.0668,-0.734,-0.566,0.0239,-1.06,-9.03e-05,0.0479,-0.311
GCACTAG,-0.0426,-0.0693,-0.693,-0.554,0.053,-1.17,-0.0135,-0.0839,-0.0541
AACGAAT,0.117,0.0619,0.125,0.295,0.018,1.09,0.121,-0.0868,0.118
CTTGACC,-0.0884,-0.155,-0.0544,-1.05,-0.0404,0.273,-0.115,-0.117,-0.0403
GGCGTTA,0.0188,0.0279,0.3,0.604,0.0118,0.912,-0.194,0.0618,0.0701
GCCACAC,-0.0449,0.0407,0.22,0.412,-0.151,0.135,0.0687,0.0191,0.0854
GGTACTT,-0.13,-0.00521,0.758,1.77,-0.0587,2.09,0.142,-0.0475,-0.0218
AGATTTA,-0.123,0.0301,0.117,-1.03,0.0695,-0.048,-0.583,0.028,0.0546
TCGTCAG,0.152,0.123,0.11,0.246,0.104,-0.365,0.201,0.121,-0.0302
CTAGACT,-0.12,-0.156,-0.131,-0.983,0.0945,0.685,-0.272,-0.118,-0.107
CCCGGGG,-0.121,-0.161,0.7,1.03,-0.0212,1.72,0.176,-0.0903,-0.0323

Sequence,uncleaved DNA left (log2) [1],uncleaved DNA left (log2) [2],uncleaved DNA left (log2) [3],uncleaved DNA left (log2) [4],uncleaved DNA left (log2) [5],uncleaved DNA left (log2) [6],uncleaved DNA left (log2) [7],uncleaved DNA left (log2) [8],uncleaved DNA left (log2) [9]
TTGCATG,0.0833,0.142,-0.73,-0.281,0.198,-0.968,0.215,0.196,0.0201
GACAAAG,0.151,0.016,-0.501,-0.429,0.0295,-0.922,0.0508,0.117,0.0235
GTAGGAT,-0.0377,-0.0273,0.171,1.36,-0.0242,1.79,0.0732,-0.174,-0.0597
GCGGCAA,0.0473,0.0536,0.657,1.55,-0.0709,1.93,0.164,0.0771,0.0838
ATAACGT,-0.117,-0.0511,-0.521,-0.88,-0.0791,-0.777,-0.0477,-0.0403,-0.158
CATGGAG,0.121,-0.0242,-0.59,0.167,0.0763,-0.7,0.24,0.2,-0.0225
TTCATGA,0.131,0.173,0.284,0.433,0.117,-0.0355,0.235,0.19,0.146
GAAAGGA,0.0625,0.0811,0.263,0.279,0.0625,0.357,0.128,0.00519,0.119
TGTGAGA,0.219,0.147,0.19,0.303,0.193,-0.368,0.244,0.219,0.0829
CTGGAGA,0.0505,0.0262,-0.0643,0.111,0.125,-0.671,0.135,-0.0159,-0.0112
CTCTACA,-0.141,0.0557,-0.357,-2.62,0.0441,-0.771,-0.00884,0.0815,0.0406
AGTCACT,0.0552,-0.153,0.141,-0.64,-0.651,0.728,-3.08,0.0631,0.0811
GGCAAGA,-0.000714,0.0476,0.575,1.36,0.123,1.61,0.103,0.0572,0.126
TCCGGGT,0.0477,0.00742,0.363,0.751,-0.063,1.55,0.141,0.00694,-0.104
TAGAGCG,0.0165,-0.00144,-0.698,-0.593,0.00409,-1.13,0.0155,-0.0166,-0.165
GCTCCAC,-0.0475,0.0976,0.096,0.384,0.0634,0.253,-0.00611,0.00745,0.0766
CTAGATG,-0.007,0.0871,-0.0471,0.555,-0.0927,0.199,0.201,-0.102,-0.0333
ACACGCT,0.108,-0.0927,-0.837,-2,0.0178,-0.995,0.0627,-0.0143,-0.232
CCTCCGG,-0.0704,-0.124,0.345,1.05,-0.147,1.26,0.0199,-0.122,-0.154
GTTGTCA,0.063,0.0768,0.346,0.905,0.0394,1.77,0.0852,0.0442,0.102
